One substance from article PMC10614163 (ACS nano, 2023) can be followed below.

For this data set the following is noted: pH 8.

Take Cy5.5: the “critical total charge for coacervation” value was 0.024 mM.
